# Reference: patent US12286661B2, “Methods for making high intensity sweeteners” (Firmenich Incorporated, priority 2018, dated 2025)
# Tested on: cucurbitadienol synthase activity
# Assay: Cucurbitadienol synthase activities of fusion proteins in yeast strain with oxidosqualene boost, LCMS
# Assay type: cell-based, S. cerevisiae
# Settings: average % activities over the average activities of the parent enzyme (Cucumis melo cucurbitadienol synthase)
# Procedure, shortened: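 Codon-optimized Cucumis melo cucurbitadienol synthase with N- or C-terminal fusion peptides, expressed in an oxidosqualene-boosted yeast strain. Product measured by LCMS (C4 column, positive ESI SIM at 427 and 409) relative to internal standard; activity scored as average % of parent enzyme (n=8).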
row,Molecule,Activity (as compared to the parent) [%]
1,"SEQ ID NO 859: fusion protein having cucurbitadienol synthase activity (protein, SS4d-G5 Full Gene AA seq) MWRLKVGKESVGEKEEKWIKSISNHLGRQVWEFCSGENENDDDEAIAVANNSASKFENARNHFRNNRFHRKQSSDLFLAIQCEKEIIRNGAKNEGTTKVKEGEDVKKEAVKNTLERALSFYSAVQTSDGNWASDLGGPMFLLPGLVIALYVTGVLNSVLSKHHRQEMCRYIYNHQNEDGGWGLHIEGSSTMFGSALNYVALRLLGEAADGGEHGAMTKARSWILERGGATAITSWGKLWLSVLGVYEWSGNNPLPPEFWLLPYSLPFHPGRMWCHCRMVYLPMSYLYGKRFVGPITPIVLSLRKELYTIPYHEIDWNRSRNTCAKEDLYYPHPKMQDILWGSIYHVYEPLFSGWPGKRLREKAMKIAMEHIHYEDENSRYICLGPVNKVLNMLCCWVEDPYSDAFKFHLQRIPDYLWLAEDGMRMQGYNGSQLWDTAFSIQAIISTKLIDTFGPTLRKAHHFVKHSQIQEDCPGDPNVWFRHIHKGAWPFSTRDHGWLISDCTAEGLKASLMLSKLPSKIVGEPLEKNRLCDAVNVLLSLQNENGGFASYELTRSYPWLELINPAETFGDIVIDYSYVECTSATMEALALFKKLHPGHRTKEIDAAIAKAANFLENMQKTDGSWYGCWGVCFTYAGWFGIKGLVAAGRTYNNCVAIRKACNFLLSKELPGGGWGESYLSCQNKVYTNLEGNKPHLVNTAWVMMALIEAGQGERDPAPLHRAARLLINSQLESGDFPQQEIMGVFNKNCMITYAAYRNIFPIWALGEYSHRVLDMGSAAPGSGSGSGMGKNVLLLGSGFVAQPVIDTLAANDDINVTVACRTLANAQALAKPSGSKAISLDVTDDSALDKVLADNDVVISLIPYTFHPNVVKSAIRTKTDVVTSSYISPALRELEPEIVKAGITVMNEIGLDPGIDHLYAVKTIDEVHRAGGKLKSFLSYCGGLPAPEDSDNPLGYKFSWSSRGVLLALRNSAKYWKDGKIETVSSEDLMATAKPYFIYPGYAFVCYPNRDSTLFKDLYHIPEAETVIRGTLRYQGFPEFVKALVDMGMLKDDANEIFSKPIAWNEALKQYLGAKSTSKEDLIASIDSKATWKDDEDRERILSGFAWLGLFSDAKITPRGNALDTLCARLEELMQYEDNERDMVVLQHKFGIEWADGTTETRTSTLVDYGKVGGYSSMAATVGYPVAIATKFVLDGTIKGPGLLAPYSPEINDPIMKELKDKYGIYLKEKTVA",105
2,"SEQ ID NO 1003: fusion protein having cucurbitadienol synthase activity (protein, SS5e-G8 Full Gene AA seq) MANQIANQGSAAPGSGSGSGMWRLKVGKESVGEKEEKWIKSISNHLGRQVWEFCSGENENDDDEAIAVANNSASKFENARNHFRNNRFHRKQSSDLFLAIQCEKEIIRNGAKNEGTTKVKEGEDVKKEAVKNTLERALSFYSAVQTSDGNWASDLGGPMFLLPGLVIALYVTGVLNSVLSKHHRQEMCRYIYNHQNEDGGWGLHIEGSSTMFGSALNYVALRLLGEAADGGEHGAMTKARSWILERGGATAITSWGKLWLSVLGVYEWSGNNPLPPEFWLLPYSLPFHPGRMWCHCRMVYLPMSYLYGKRFVGPITPIVLSLRKELYTIPYHEIDWNRSRNTCAKEDLYYPHPKMQDILWGSIYHVYEPLFSGWPGKRLREKAMKIAMEHIHYEDENSRYICLGPVNKVLNMLCCWVEDPYSDAFKFHLQRIPDYLWLAEDGMRMQGYNGSQLWDTAFSIQAIISTKLIDTFGPTLRKAHHFVKHSQIQEDCPGDPNVWFRHIHKGAWPFSTRDHGWLISDCTAEGLKASLMLSKLPSKIVGEPLEKNRLCDAVNVLLSLQNENGGFASYELTRSYPWLELINPAETFGDIVIDYSYVECTSATMEALALFKKLHPGHRTKEIDAAIAKAANFLENMQKTDGSWYGCWGVCFTYAGWFGIKGLVAAGRTYNNCVAIRKACNFLLSKELPGGGWGESYLSCQNKVYTNLEGNKPHLVNTAWVMMALIEAGQGERDPAPLHRAARLLINSQLESGDFPQQEIMGVFNKNCMITYAAYRNIFPIWALGEYSHRVLDM",118
3,"SEQ ID NO 1007: fusion protein having cucurbitadienol synthase activity (protein, SS5f-E11 Full Gene AA seq) MVDARGSNGSAAPGSGSGSGMWRLKVGKESVGEKEEKWIKSISNHLGRQVWEFCSGENENDDDEAIAVANNSASKFENARNHFRNNRFHRKQSSDLFLAIQCEKEIIRNGAKNEGTTKVKEGEDVKKEAVKNTLERALSFYSAVQTSDGNWASDLGGPMFLLPGLVIALYVTGVLNSVLSKHHRQEMCRYIYNHQNEDGGWGLHIEGSSTMFGSALNYVALRLLGEAADGGEHGAMTKARSWILERGGATAITSWGKLWLSVLGVYEWSGNNPLPPEFWLLPYSLPFHPGRMWCHCRMVYLPMSYLYGKRFVGPITPIVLSLRKELYTIPYHEIDWNRSRNTCAKEDLYYPHPKMQDILWGSIYHVYEPLFSGWPGKRLREKAMKIAMEHIHYEDENSRYICLGPVNKVLNMLCCWVEDPYSDAFKFHLQRIPDYLWLAEDGMRMQGYNGSQLWDTAFSIQAIISTKLIDTFGPTLRKAHHFVKHSQIQEDCPGDPNVWFRHIHKGAWPFSTRDHGWLISDCTAEGLKASLMLSKLPSKIVGEPLEKNRLCDAVNVLLSLQNENGGFASYELTRSYPWLELINPAETFGDIVIDYSYVECTSATMEALALFKKLHPGHRTKEIDAAIAKAANFLENMQKTDGSWYGCWGVCFTYAGWFGIKGLVAAGRTYNNCVAIRKACNFLLSKELPGGGWGESYLSCQNKVYTNLEGNKPHLVNTAWVMMALIEAGQGERDPAPLHRAARLLINSQLESGDFPQQEIMGVFNKNCMITYAAYRNIFPIWALGEYSHRVLDM",97
4,"SEQ ID NO 851: fusion protein having cucurbitadienol synthase activity (protein, SS2e-A7b Full Gene AA seq) MWRLKVGKESVGEKEEKWIKSISNHLGRQVWEFCSGENENDDDEAIAVANNSASKFENARNHFRNNRFHRKQSSDLFLAIQCEKEIIRNGAKNEGTTKVKEGEDVKKEAVKNTLERALSFYSAVQTSDGNWASDLGGPMFLLPGLVIALYVTGVLNSVLSKHHRQEMCRYIYNHQNEDGGWGLHIEGSSTMFGSALNYVALRLLGEAADGGEHGAMTKARSWILERGGATAITSWGKLWLSVLGVYEWSGNNPLPPEFWLLPYSLPFHPGRMWCHCRMVYLPMSYLYGKRFVGPITPIVLSLRKELYTIPYHEIDWNRSRNTCAKEDLYYPHPKMQDILWGSIYHVYEPLFSGWPGKRLREKAMKIAMEHIHYEDENSRYICLGPVNKVLNMLCCWVEDPYSDAFKFHLQRIPDYLWLAEDGMRMQGYNGSQLWDTAFSIQAIISTKLIDTFGPTLRKAHHFVKHSQIQEDCPGDPNVWFRHIHKGAWPFSTRDHGWLISDCTAEGLKASLMLSKLPSKIVGEPLEKNRLCDAVNVLLSLQNENGGFASYELTRSYPWLELINPAETFGDIVIDYSYVECTSATMEALALFKKLHPGHRTKEIDAAIAKAANFLENMQKTDGSWYGCWGVCFTYAGWFGIKGLVAAGRTYNNCVAIRKACNFLLSKELPGGGWGESYLSCQNKVYTNLEGNKPHLVNTAWVMMALIEAGQGERDPAPLHRAARLLINSQLESGDFPQQEIMGVFNKNCMITYAAYRNIFPIWALGEYSHRVLDMGSAAPGSGSGSGMSASTTSLEEYQKTFLELGLECKALRFGSFKLNSGRQSPYFFNLSLFNSGKLLANLATAYATAIIQSELKFDVIFGPAYKGIPLAAIVCVKLAEIGGTKFQGIQYAFNRKKVKDHGEGGIIVGASLEDKRVLIIDDVMTAGTAINEAFEIISIAQGRVVGCIVALDRQEVIHESDPERTSATQSVSKRYNVPVLSIVSLTQVVQFMGNRLSPEQKSAIENYRKAYGI",142
5,"SEQ ID NO 854: fusion protein having cucurbitadienol synthase activity (protein, SS2d-G11 Full Gene AA seq) MWRLKVGKESVGEKEEKWIKSISNHLGRQVWEFCSGENENDDDEAIAVANNSASKFENARNHFRNNRFHRKQSSDLFLAIQCEKEIIRNGAKNEGTTKVKEGEDVKKEAVKNTLERALSFYSAVQTSDGNWASDLGGPMFLLPGLVIALYVTGVLNSVLSKHHRQEMCRYIYNHQNEDGGWGLHIEGSSTMFGSALNYVALRLLGEAADGGEHGAMTKARSWILERGGATAITSWGKLWLSVLGVYEWSGNNPLPPEFWLLPYSLPFHPGRMWCHCRMVYLPMSYLYGKRFVGPITPIVLSLRKELYTIPYHEIDWNRSRNTCAKEDLYYPHPKMQDILWGSIYHVYEPLFSGWPGKRLREKAMKIAMEHIHYEDENSRYICLGPVNKVLNMLCCWVEDPYSDAFKFHLQRIPDYLWLAEDGMRMQGYNGSQLWDTAFSIQAIISTKLIDTFGPTLRKAHHFVKHSQIQEDCPGDPNVWFRHIHKGAWPFSTRDHGWLISDCTAEGLKASLMLSKLPSKIVGEPLEKNRLCDAVNVLLSLQNENGGFASYELTRSYPWLELINPAETFGDIVIDYSYVECTSATMEALALFKKLHPGHRTKEIDAAIAKAANFLENMQKTDGSWYGCWGVCFTYAGWFGIKGLVAAGRTYNNCVAIRKACNFLLSKELPGGGWGESYLSCQNKVYTNLEGNKPHLVNTAWVMMALIEAGQGERDPAPLHRAARLLINSQLESGDFPQQEIMGVFNKNCMITYAAYRNIFPIWALGEYSHRVLDMGSAAPGSGSGSGMTELDYQGTAEAASTSYSRNQTDLKPFPSAGSASSSIKTTEPVKDHRRRRSSSIISHVEPETFEDENDQQLLPNMNATWVDQRGAWIIHVVIIILLKLFYNLFPGVTTEWSWTLTNMTYVIGSYVMFHLIKGTPFDFNGGAYDNLTMWEQIDDETLYTPSRKFLISVPIALFLVSTHYAHYDLKLFSWNCFLTTFGAVVPKLPVTHRLRISIPGITGRAQIS",135
